Measured values taken from PubChem BioAssay AID504339 (National Center for Advancing Translational Sciences (NCATS), 2011).
Values joined by “and” are separate entries in the source; they are usually repeats but may differ in a detail not shown here. Equal entries are not always repeated. Among all 390,000 compounds or so, about 17,000 (4.4%) were called active. This list was built around the results that the source calls inconclusive (neither active nor inactive); the mix of calls is not that of the screen. Calls come from the whole dose curve; as a rule, active = well fitted inhibition curve with a large enough effect; inconclusive = small, poorly fitted or top-dose-only effect; inactive = no such curve, though single readings can be large or run the other way. Where the call is inconclusive, the potency comes from a doubtful curve fit.

Each compound was assayed against Lysine-specific demethylase 4A (Homo sapiens) (UniProt O75164) (assay: qHTS Assay for Inhibitors of JMJD2A-Tudor Domain). Conditions: AlphaScreen JMJD2A-Tudor / H3K4me3 peptide binding; series mostly up to 114 µM.
Note: nearly all actives have a fitted effect of over 50% in size.
Potency is the fitted concentration of half-maximal effect; tags give direction and shape of the fitted curve.

UniProt O75164, sequence (O75164 whole entry, looked up, the tested form may be a part): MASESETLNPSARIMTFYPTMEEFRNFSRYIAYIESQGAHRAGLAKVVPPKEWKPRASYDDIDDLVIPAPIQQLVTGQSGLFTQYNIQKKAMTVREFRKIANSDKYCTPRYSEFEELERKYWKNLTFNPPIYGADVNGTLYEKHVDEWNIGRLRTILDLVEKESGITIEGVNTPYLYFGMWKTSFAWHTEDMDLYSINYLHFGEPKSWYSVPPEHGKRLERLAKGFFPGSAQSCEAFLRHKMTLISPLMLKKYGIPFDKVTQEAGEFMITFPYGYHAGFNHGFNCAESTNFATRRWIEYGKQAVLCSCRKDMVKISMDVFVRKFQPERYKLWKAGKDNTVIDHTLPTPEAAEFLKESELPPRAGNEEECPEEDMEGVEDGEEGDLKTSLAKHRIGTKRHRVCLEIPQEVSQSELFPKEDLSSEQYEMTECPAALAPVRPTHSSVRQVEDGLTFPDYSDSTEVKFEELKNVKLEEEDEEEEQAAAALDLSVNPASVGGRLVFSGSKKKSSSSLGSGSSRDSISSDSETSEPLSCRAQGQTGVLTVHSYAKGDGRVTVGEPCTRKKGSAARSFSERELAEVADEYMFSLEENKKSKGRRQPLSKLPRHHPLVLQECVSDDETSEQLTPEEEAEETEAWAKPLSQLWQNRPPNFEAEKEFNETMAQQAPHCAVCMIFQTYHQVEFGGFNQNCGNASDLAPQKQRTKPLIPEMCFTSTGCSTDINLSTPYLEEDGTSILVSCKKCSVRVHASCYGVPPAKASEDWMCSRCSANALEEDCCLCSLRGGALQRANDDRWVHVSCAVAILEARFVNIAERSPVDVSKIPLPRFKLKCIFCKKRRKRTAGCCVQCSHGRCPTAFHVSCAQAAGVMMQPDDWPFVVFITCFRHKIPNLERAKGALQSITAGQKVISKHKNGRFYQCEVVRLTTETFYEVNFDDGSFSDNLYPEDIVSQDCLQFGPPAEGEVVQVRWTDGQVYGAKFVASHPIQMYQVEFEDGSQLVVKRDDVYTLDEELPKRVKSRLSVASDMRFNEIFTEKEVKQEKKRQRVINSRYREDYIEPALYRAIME

| SMILES | Potency |
| --- | --- |
| CCN(CCCNC(=O)CN1N=C(c2ccc(OC)cc2)CCC1=O)c1cccc(C)c1 | active: 79.4 µM |
| CCOc1ccc(CN2CCNC(=O)C2CC(=O)NCCCOc2cccnc2)cc1 (stereo not drawn) | inconclusive: 50.1 µM [inhibitor, partial curve, poor fit] |
| COc1cccc(C(C(=O)NC2CCCC2)N(C(=O)c2ccco2)c2ccc(NC(C)=O)cc2)c1OC (stereo not drawn) | inactive |
| COc1cccc(Nc2sc(C(=O)c3ccc(F)cc3)c(N)c2C(=O)NCc2ccc(Cl)cc2)c1 | inconclusive: 50.1 µM [inhibitor, partial curve] |
| COC(CNC(=O)c1ccc2c3c(onc13)-c1ccccc1C2=O)OC | active: 50.1 µM |
| CC(=O)NC(=S)NNC(=O)CCc1ccccc1 | inconclusive: 39.8 µM [inhibitor, single point] |
| COc1ccc(Cc2nnc(SCC(=O)c3ccc4c(c3)NC(=O)CO4)o2)cc1 | inactive |
| C/C(=N\NC1=N[C@H]2CS(=O)(=O)C[C@H]2S1)c1ccccc1 | inconclusive: 31.6 µM [inhibitor, single point] |
| CCNC(=S)NS(=O)(=O)c1ccc(F)cc1 | inconclusive: 39.8 µM [inhibitor, single point] |
| CCN(CC)C(=O)Cn1c(C)c(/C=C/c2cc[n+](C)cc2)c2ccccc21 | inconclusive: 11.2 µM [inhibitor, partial curve] |
| CC(=O)c1ccc(Sc2ccccc2N)c([N+](=O)[O-])c1 | inconclusive: 56.2 µM [inhibitor, partial curve] |
| COc1cc(-c2noc(C3CC(=O)N(c4ccc5c(c4)OCCO5)C3)n2)cc(OC)c1OC (stereo not drawn) | inconclusive: 89.1 µM [inhibitor, partial curve] |
| COc1cccc(CN(C)C(=O)c2ccc(Oc3ccccc3)cc2)c1OC | inactive |
| COc1cc(O)c(C(CCN2CCCCC2)c2ccc(N(C)C)cc2)c(OC)c1 (stereo not drawn) | active: 44.7 µM and active: 39.8 µM |
| CCC(=O)Nc1nnc(S(=O)(=O)N(C)Cc2ccco2)s1 | inconclusive: 28.2 µM [inhibitor, full curve, poor fit] |
| CN(C)S(=O)(=O)c1cc(NC(=O)CSc2nn(-c3ccc(Cl)cc3)c(=S)s2)ccc1Cl | inconclusive: 50.1 µM [inhibitor, partial curve] |
| COc1ccc(N=C2C(=O)Nc3ccc(C)c(Br)c32)cc1 | inconclusive: 10 µM [inhibitor, full curve] |
| CCN(CCCNC(=O)c1cc2c(=O)n(CC)c3ccccc3c2s1)c1cccc(C)c1 | inconclusive: 3.55 µM [inhibitor, full curve, poor fit] |
